# In PubChem BioAssay AID761 (NMMLSC, 2007):
# The campaign covered roughly 190,000 compounds. About 400 (0.21%) were called active. This list was built around the results that the source calls inconclusive (neither active nor inactive); the mix of calls is not that of the screen.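 How the source made its calls: active means percent activity GTP binding at least 20 points away from the 100% baseline, either down as inhibitor or up as activator; inconclusive means compound flagged as likely green fluorescent from well-wide comparison; inactive means the rest.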
# Molecular target: Cell division control protein 42 homolog (Homo sapiens) (UniProt P60953)
# Chain of UniProt P60953 (P60953 whole entry, looked up): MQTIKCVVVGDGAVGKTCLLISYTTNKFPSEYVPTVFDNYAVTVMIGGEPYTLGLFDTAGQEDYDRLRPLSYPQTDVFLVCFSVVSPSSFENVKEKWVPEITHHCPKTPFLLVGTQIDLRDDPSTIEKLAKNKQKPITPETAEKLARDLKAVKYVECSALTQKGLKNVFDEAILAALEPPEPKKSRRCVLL
# Test: wildtype Cdc42 fluorescent GTP binding changes, either direction – biochemical, multiplex bead flow cytometry, Bodipy-GTP, primary screen (AID 761);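 further: median bead fluorescence of bound Bodipy-FL-GTP at 100 nM; 0% = excess unlabeled GTP control and 100% = no compound control; below 100% means less GTP binding so inhibitor and above means activator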
# Conditions: GST-Cdc42 beads, at 10 µM, actives lie on both sides
row,SMILES,percent activity (GTP binding)
1,Cc1ccnc(NS(=O)(=O)c2ccc(NC(=O)c3ccc([N+](=O)[O-])s3)cc2)n1,inactive: 92%
2,COc1ccc(Br)cc1/C=N/NC(=O)c1ccc(OC)c(OC)c1,inconclusive: 94%
3,CCN(CC)c1ccc(-c2nn3c(-c4cccnc4)nnc3s2)cc1,active: 72%
4,CCOC(=O)c1ccc(NC2Nc3cc(C)nn3S2)cc1 (stereo not drawn),inactive: 95%
5,CSc1nc(C)c2cc(C)oc2n1,inconclusive: 101%
6,Cc1ccc2c(c1)c1nnc(SCC(=O)N3CCCc4ccccc43)nc1n2CC(=O)O,active: 64%
7,CCOc1ccc2nc(SCc3ccc(CC(=O)O)cc3)c(C#N)cc2c1,active: 71%
8,Cc1cccc(NS(=O)(=O)c2cnc(Cl)c(Br)c2)n1,inactive: 99%
9,O=C(Cn1c(=O)n(CC(=O)NCc2ccccc2)c2ccccc21)NCc1ccccc1,inconclusive: 106%
10,CCc1nnc(NC(=O)CSc2nc(-c3ccccc3)nc3ccccc23)s1,inactive: 99%
11,C/C=C/C=N/Nc1nc(C)cc(=O)[nH]1,inconclusive: 94%
12,COc1ccc(Cl)cc1NC(=O)CCNC(=O)OCc1ccccc1,inactive: 90%
13,c1coc(-c2nnc3sc(Cc4cccs4)nn23)c1,inconclusive: 90%
14,NS(=O)(=O)c1ccc(CCN2C(=O)/C(=C\c3ccc(Cl)cc3)SC2=S)cc1,inactive: 84%
15,O=C(c1cc([N+](=O)[O-])ccc1N1CCOCC1)N1CCCC1,inactive: 101%
16,O=c1c2c3c(sc2ncn1Cc1ccc(F)cc1)CCC3,inconclusive: 96%
17,C=CCN(CC=C)S(=O)(=O)c1ccc(C(=O)Nc2nc3c(s2)CCc2ccccc2-3)cc1,active: 138% [activator]
18,Cn1c(SCC(=O)Nc2cccc(Br)c2)nnc1-c1cc2ccccc2o1,inconclusive: 148%
19,COc1ccc(OC)c(C2C3=C(COC3=O)Nc3cc4c(cc32)OCO4)c1 (stereo not drawn),inconclusive: 88%
20,COc1cccc(NC(=O)COC(=O)/C=C/c2ccc(Cl)cc2Cl)c1,active: 79%
21,COc1ccccc1N1CCN(CC(=O)NC(=O)NCc2ccco2)CC1,inconclusive: 99%
22,O=C(CSc1nnc(-c2cccs2)n1-c1ccccc1)NCc1ccc2c(c1)OCO2,inconclusive: 101%
23,O=C(O)c1cccc(OCc2ccccc2Cl)c1,inconclusive: 106%
24,CCCOc1ccc(C(=O)NNC(=S)NC(=O)c2cc(-c3ccccc3)nc3ccccc23)cc1,inconclusive: 92%

row,SMILES,percent activity (GTP binding)
1,Oc1[nH]c2ccccc2c1/C=N/c1nccs1,inconclusive: 93%
2,Cc1ccc(NC(=O)/C(=C/c2cccc([N+](=O)[O-])c2)NC(=O)C2CCCCC2)cc1,inconclusive: 92%
3,CCCCOC(=O)c1ccc(NC(=S)NC(=O)c2c(Br)c(C)nn2C)cc1,inconclusive: 94%
4,COc1ccc(NC(=O)C(CCS(C)(=O)=O)N2C(=O)c3ccccc3C2=O)cc1 (stereo not drawn),inactive: 99%
5,CCCCOc1ccc(-c2nnn(CC(=O)c3c[nH]c4ccccc34)n2)cc1,inconclusive: 109%
6,CC(C)CC(=O)Nc1ccc(C(=O)Nc2cccc(O)c2)cc1,inconclusive: 84%
7,CN(C)c1ccc(/C=c2/sc3n(c2=O)NC2(c4ccccc4)N(C)C(=O)N(C)C2(c2ccccc2)N=3)cc1 (stereo not drawn),inactive: 101%
8,Cc1ccc(CSc2nnc(-c3ccncc3)n2CC2CCCO2)cc1 (stereo not drawn),inactive: 103%
9,Cc1ccccc1CSc1nc(-c2ccccc2)cc(=O)[nH]1,inactive: 98%
10,CCN1/C(=C/C=C/C=C/c2sc3ccccc3[n+]2CC)Sc2ccccc21,active: 63%
11,O=C(Cn1cc(C(F)(F)F)ccc1=O)N1CCN(S(=O)(=O)c2ccccc2)CC1,inconclusive: 101%
12,O=C1C2C3C=CC(C3)C2C(=O)N1CCN1CCN(Cc2ccc([N+](=O)[O-])cc2)CC1 (stereo not drawn),inactive: 94%
13,COc1ccc(OC)c(Nc2nc(N)nc(-c3cc4ccccc4o3)n2)c1,inconclusive: 94%
14,COc1ccc(CNc2nc3ccccc3n2Cc2ccccc2)cc1OC,inconclusive: 107%
15,O=C1NC2(CCCCC2)N=C1c1ccccc1,inconclusive: 110%
16,COc1cc(-n2cnnn2)ccc1S(=O)(=O)N1CCOCC1,inconclusive: 111%
17,COc1ccc(S(=O)(=O)N2CCN(C(=O)c3cccc(Cl)c3)CC2)cc1,inconclusive: 104%
18,O=C1C(C=NCc2ccncc2)=C(O)c2ccccc21,inconclusive: 104%
19,CCSc1nc2ccccc2c(=O)n1Cc1ccc(F)cc1,inactive: 98%
20,C[C@H](C(=O)C=[N+]=[N-])N1C(=O)c2ccccc2C1=O,inconclusive: 105%
21,COc1ccc(/C=N/NC(=S)Nc2cccc(C(=O)O)c2)cc1,inconclusive: 92%
22,COc1ccccc1Nc1nc(-c2c(C)nc3ncccn23)cs1,active: 66%
23,Cc1ccc(C2CC(c3cccs3)n3nc(N)nc3N2)cc1 (stereo not drawn),inactive: 102%
24,COc1ccc(OC)c(NS(=O)(=O)Cc2ccccc2)c1,inconclusive: 81%

row,SMILES,percent activity (GTP binding)
1,CN(C)c1ccnc2sc(C(=O)NCc3ccccc3)c(N)c12,inconclusive: 92%
2,COC(=O)c1ccc(-c2ccc(/C=N/NC(=O)CC3(C)OCCCO3)o2)cc1,inconclusive: 93%
3,O=C(NCC(O)c1ccc([N+](=O)[O-])cc1)C1CCCCC1 (stereo not drawn),inactive: 97%
4,COc1cc2c(cc1OC)-c1cc(NC3CCCCCC3)nc(=O)n1CC2,active: 77%
5,Cc1cc(NC(=O)CSc2nnc(N)s2)c([N+](=O)[O-])cc1C,inconclusive: 93%
6,Cc1ccc(C)c(OCC(=O)N2CCOCC2)c1,inactive: 102%
7,CCn1cc([N+](=O)[O-])c(C(=O)Nc2ccn(Cc3ccccc3)n2)n1,inconclusive: 102%
8,COc1ccc(Cn2c(=O)c3c(nc(NCCO)n3C)n(C)c2=O)cc1,inconclusive: 90%
9,O=C1CCC(/C=C/c2ccccc2)=NN1Cc1ccc(F)cc1,inconclusive: 92%
10,CCOC(=O)c1sc(NC(=O)CSc2nnnn2-c2ccccc2)c(C(=O)OCC)c1C,inactive: 104%
11,O=C(CCl)Nc1cccn2ncnc12,inactive: 114%
12,COc1ccc(-c2c(C)[nH]n3c(=O)c(Cc4ccccc4)c(C)nc23)cc1,inactive: 95%
13,Cc1ccnc(NC(=O)COc2ccc3oc4c(c3c2)CCCC4)c1,inactive: 99%
14,Cn1ccnc1Sc1nc(Nc2cccc(Cl)c2)nc(N2CCOCC2)n1,inconclusive: 104%
15,Cc1cc(NC(=O)COc2ccccc2)n(-c2ccccc2)n1,inconclusive: 103%
16,COc1ccc2cc(CN(CCO)C(=O)c3ccccc3F)c(=O)[nH]c2c1,inconclusive: 104%
17,CC(C)(C)c1ccc(Oc2ccc(N)cc2)cc1,inconclusive: 95%
18,CCC(C)c1ccccc1NC(=O)CN1CCN(C/C=C/c2ccccc2)CC1 (stereo not drawn),inconclusive: 103%
19,COCCCNCC(=O)Nc1sc(C)c(C)c1C(=O)OC,inconclusive: 106%
20,CC(=O)[C@@H]1[C@@H]2C(=O)N(c3ccc(F)c(Cl)c3)C(=O)[C@@H]2C2c3ccccc3C=CN21 (stereo partly drawn),inconclusive: 107%
21,Cc1ccc(Nc2nc(N)nc(CSc3nncn3C)n2)cc1,inconclusive: 93%
22,CCOC(=O)C1=C(CC)Nc2ccccc2N=C1N,inconclusive: 93%
23,CC(C)(C)C(=O)/C=c1\s/c(=C\c2ccc(-c3ccc([N+](=O)[O-])cc3)o2)c(=O)n1CC(=O)NC(N)=O,inconclusive: 139%
24,Nc1nc(-c2ccc3c(c2)CCC(=O)N3)cs1,inconclusive: 92%

row,SMILES,percent activity (GTP binding)
1,CCC(CC)C(=O)NCc1ccc(Cl)cc1,inactive: 99%
2,Cc1ccc(NC(=O)Cc2ccc(Cl)c(Cl)c2)cc1S(=O)(=O)N(C)C,inconclusive: 104%
3,CC(C)(C)C1=Nn2c(nnc2-c2n[nH]c3c2CCC3)SC1,inconclusive: 96%
4,CCOCCc1nnc(NC(=O)c2cccc(F)c2)s1,inconclusive: 105%
5,CCN(CC)S(=O)(=O)c1ccc(C(=O)NC(C)(C)C)cc1,inconclusive: 93%
6,CCOC(=O)c1sc(Nc2nc3c(OC)cccc3s2)nc1C,inconclusive: 85%
7,O=C(COc1ccccc1-c1ccccc1)N/N=C/c1ccncc1,active: 60%
8,Cc1ccc(C)c(NS(=O)(=O)c2cc(C(=O)Nc3ccccc3-c3ccccc3)ccc2C)c1,inconclusive: 106%
9,CCn1cc(C2=NOC(C(=O)Nc3cccc(C(C)=O)c3)C2)c(C)n1 (stereo not drawn),inconclusive: 105%
10,O=C(CN1CCCCCC1)N/N=C/c1cccc(Cl)c1Cl,inactive: 105%
11,COC(=O)C1C(=O)C2=C(CC1C)NC(=O)CC2c1ccc(O)c(OC)c1 (stereo not drawn),inactive: 103%
12,O=C(NCc1ccco1)c1ccc(-c2ccccc2Cl)o1,inconclusive: 88%
13,CC(=O)Nc1ccc(N2C(=O)c3ccc(C(=O)Nc4nnc(SCc5ccc(F)cc5)s4)cc3C2=O)cc1,inactive: 97%
14,CCC(c1nnnn1CS(=O)(=O)c1ccc(C)cc1)N1CCN(c2nc3ccccc3s2)CC1 (stereo not drawn),inconclusive: 102%
15,Cc1ccc([N+](=O)[O-])cc1S(=O)(=O)n1ccnc1C,inactive: 98%
16,N#C/C(=C/c1ccc(N2CCCCC2)o1)C(=O)Nc1ccc2ccccc2c1,inconclusive: 157%
17,COCCCN1CN(S(=O)(=O)c2ccc(Cl)cc2)c2nc3ccccc3nc21,inconclusive: 107%
18,O=C(O)/C=C/c1cn(Cc2ccccc2)nc1-c1cccs1,active: 135% [activator]
19,Cc1ccc2c(c1)SC1=NC(c3ccccc3)(C(F)(F)F)NC(=O)N12 (stereo not drawn),inconclusive: 94%
20,COc1ccc2nc(NNC(=O)c3cc(=O)c4ccccc4o3)sc2c1,inactive: 86%
21,COc1cc(NC2c3ccccc3C(=O)N2c2ccc(C)cn2)cc(OC)c1OC (stereo not drawn),inactive: 105%
